The campaign covered roughly 310,000 compounds. About 14,000 (4.5%) showed an effect of 50% or more. Effects have a minus sign here. The list shows a part of the results.
Biological target: human ether-à-go-go-related gene (hERG) potassium channel (human, UniProt Q12809)
Test: primary screen, population patch clamp on CHO cells stably expressing hERG
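Further: peak tail current of the secondary pulse compared with the same well before compound.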

Sequence of human ether-à-go-go-related gene (hERG) potassium channel (Q12809 whole entry, looked up): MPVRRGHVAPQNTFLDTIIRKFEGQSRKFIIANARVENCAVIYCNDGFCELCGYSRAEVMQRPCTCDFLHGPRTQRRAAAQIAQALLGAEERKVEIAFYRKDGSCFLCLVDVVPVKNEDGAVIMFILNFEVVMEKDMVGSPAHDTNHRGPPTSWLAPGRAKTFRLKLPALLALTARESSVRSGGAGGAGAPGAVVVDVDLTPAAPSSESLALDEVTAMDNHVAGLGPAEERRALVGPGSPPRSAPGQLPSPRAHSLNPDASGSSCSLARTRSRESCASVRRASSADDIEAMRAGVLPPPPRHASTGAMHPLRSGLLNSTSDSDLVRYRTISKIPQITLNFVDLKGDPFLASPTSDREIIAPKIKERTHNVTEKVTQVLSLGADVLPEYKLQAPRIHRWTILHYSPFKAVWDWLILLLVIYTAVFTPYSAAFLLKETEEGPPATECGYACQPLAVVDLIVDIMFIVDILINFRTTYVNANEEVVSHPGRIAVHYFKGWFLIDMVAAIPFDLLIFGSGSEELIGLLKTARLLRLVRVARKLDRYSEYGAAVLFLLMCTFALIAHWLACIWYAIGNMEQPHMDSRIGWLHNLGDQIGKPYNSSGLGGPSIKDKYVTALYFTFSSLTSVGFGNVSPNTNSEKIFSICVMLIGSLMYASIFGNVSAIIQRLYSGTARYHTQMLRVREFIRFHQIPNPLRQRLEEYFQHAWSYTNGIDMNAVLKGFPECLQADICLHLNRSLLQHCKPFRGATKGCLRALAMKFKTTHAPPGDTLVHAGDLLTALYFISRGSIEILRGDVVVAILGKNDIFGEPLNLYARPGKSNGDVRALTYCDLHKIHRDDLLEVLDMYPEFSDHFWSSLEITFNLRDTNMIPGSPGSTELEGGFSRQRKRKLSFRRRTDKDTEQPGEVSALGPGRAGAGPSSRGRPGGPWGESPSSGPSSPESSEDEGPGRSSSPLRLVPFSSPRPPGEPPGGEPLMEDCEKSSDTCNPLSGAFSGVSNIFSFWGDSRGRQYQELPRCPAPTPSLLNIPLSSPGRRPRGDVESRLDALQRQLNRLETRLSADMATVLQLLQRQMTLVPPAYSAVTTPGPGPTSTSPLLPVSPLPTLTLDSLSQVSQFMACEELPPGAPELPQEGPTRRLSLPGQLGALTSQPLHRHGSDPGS

Row | SMILES | hERG current change (%, negative = inhibition) at 10uM
1 | COc1ccccc1N(CC(=O)NCCSC(C)(C)C)S(C)(=O)=O | 4.64%
2 | O=C(Nc1nccs1)C1CC(=O)N(c2ccccc2Cl)C1 (stereo not shown) | 8.77%
3 | CC(=O)Cc1ccccc1OCC(=O)O | 24%
4 | NC(=O)c1c(NC(=O)c2ccccc2C(=O)O)sc2c1CCCC2 | 3.51%
5 | CCOc1ccccc1-c1cc(C(=O)N2CCOCC2)c2ccccc2n1 | -7.06%
6 | O=C1NN(c2ccc(Cl)c(Cl)c2)C(=O)/C1=C/c1ccc(-c2ccccc2C(=O)O)o1 | 16%
7 | Cc1nnc(SCC(=O)Nc2ccc(C(N)=O)cc2)n1-c1ccccc1 | 14%
8 | CCOc1ccc(NC(=O)CN(C)C(=O)c2ccccc2Cc2ccccc2)cc1OCC | -14%
9 | Cn1ccc(C(=O)Nc2ccc(Br)cc2Br)n1 | -1.49%
10 | O=C(N=c1ccn(-c2nc3ccccc3nc2NS(=O)(=O)c2ccc(Cl)cc2)cc1)c1cccs1 | 26.2%
11 | CCN(CC(=O)Nc1ccccc1OC)C(=O)COc1ccc2ccccc2c1 | -2.9%
12 | O=C(NNc1cc(N2CCCC2)nc(N2CCCC2)n1)c1ccc([N+](=O)[O-])cc1 | -47%
13 | CCN=c1scc(-c2cccs2)n1/N=C/c1cc(OC)ccc1O | 0.136%
14 | Cc1ccc(S(=O)(=O)N2CCN(C3CC(=O)N(Cc4ccccc4)C3=O)CC2)cc1C (stereo not shown) | -22.3%
15 | Cc1ccc(C(=O)CC2(O)C(=O)N(Cc3ccccc3Cl)c3ccccc32)o1 (stereo not shown) | -7.92%
16 | COc1ccc(CCCCCCOCc2ccccc2)cc1 | 11%
17 | Cc1ccc(C(=O)COC(=O)c2cn3ccccc3n2)cc1 | 29.6%
18 | CCN(CC)S(=O)(=O)c1ccc(C(=O)N(c2ccc(C)cc2)C2C=CS(=O)(=O)C2)cc1 (stereo not shown) | -8.66%
19 | COc1ccc(CCNC(=O)Cn2nnc(C(=O)Nc3cc(C)ccc3C)c2N)cc1OC | 10.9%
20 | O=C(NCc1cccnc1)C(=O)Nc1ccc2c(c1)OCO2 | 16.2%
21 | O=C1C2C3C=CC(C3)C2C(=O)N1c1ccc2c(c1)CCC2 (stereo not shown) | -7.03%
22 | COc1ccc(C(=O)Cn2c(Br)nc3c2c(=O)n(C)c(=O)n3C)cc1OC | 9.27%

Row | SMILES | hERG current change (%, negative = inhibition) at 10uM
23 | COc1cccc(-c2nn(C)c3sc(C(=O)N4CCN(c5ccccc5)CC4)cc23)c1 | 16.2%
24 | O=C(OCCCN=C1NS(=O)(=O)c2ccccc21)C1CC(=O)N(c2ccc(Cl)cc2)C1 (stereo not shown) | -58.7%
25 | O=C(COC(=O)CNC(=O)c1ccccc1Cl)Nc1ncc(C(F)(F)F)cc1Cl | -1.76%
26 | O=C(Nc1ccc(S(=O)(=O)N2CCCCC2)cc1)C1CC(=O)N(Cc2ccccc2)C1 (stereo not shown) | 8.94%
27 | CCOc1ccc2oc(C(=O)NC(C)(C)CC)c(C)c2c1 | -3%
28 | Cc1cc(C(=O)Nc2cccnc2)no1 | 7.68%
29 | CC(C)(C)NC(=O)Cn1nnc(-c2ccc(Cl)cc2)n1 | 2.32%
30 | Cc1nn(C)c(C)c1S(=O)(=O)N(CC(=O)NCCCN1CC(C)CC(C)C1)c1ccc(C(C)C)cc1 (stereo not shown) | -66.4%
31 | CC(=O)Nc1ccc(NC(=O)CSc2ncc(C(=O)Nc3ccc(F)cc3)c(=O)n2C)cc1 | -23.7%
32 | CCOC(=O)N1CCN(C(=O)CSc2ncccn2)CC1 | 5.56%
33 | CCCNC(=O)c1c(N)n(CC2CCCO2)c2nc3ccccc3nc12 (stereo not shown) | -2.42%
34 | COC(=O)Nc1ccc(S(=O)(=O)N2CCC(C(=O)N3CCC(C)CC3)CC2)cc1 | 9.21%
35 | O=C(CF)NC(Nc1cccc2cccnc12)C(Cl)(Cl)Cl (stereo not shown) | -5.95%
36 | O=C(Nc1cccc(-c2nc3cc(Cl)ccc3o2)c1)C1CCCO1 (stereo not shown) | -20.7%
37 | O=C(Nc1ccccc1N1CCCC1)c1ccc(F)c(S(=O)(=O)N2CCOCC2)c1 | -22.5%
38 | Oc1ccc(Oc2ccc3c(C(F)(F)F)cc(C(F)(F)F)nc3n2)cc1 | 6.5%
39 | CC1CCCN(CCSc2ccc(Cl)cc2)C1.O=C(O)C(=O)O (stereo not shown) | -41.3%
40 | CC1OC(C)(C)OC1C1CNc2nc(NC(=O)C(C)(C)C)[nH]c(=O)c2N1C(=O)c1cccnc1 (stereo not shown) | 8.96%
41 | O=C1c2cccc3c([N+](=O)[O-])ccc(c23)C(=O)N1CCc1ccccn1 | 1.72%
42 | Cc1ccc(N2C(=O)CC(Sc3ncn[nH]3)C2=O)cc1C (stereo not shown) | 14.2%
43 | Cc1cc(=O)oc2cc(OCC(=O)c3ccc4c(c3)NC(=O)CO4)ccc12 | 17.2%

Source: article PMC4336329 (PLoS ONE, 2015)
